{
  "source": "the supplement of paper PMC4604168 (melanoma cell lines)",
  "note": "The list shows a part of the results. Many values rest on one well or one pass, so single values are uncertain.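 Note: cell number obtained by counting DAPI-stained nuclei in high-throughput microscope images with image analysis software, screen run in 1,536-well plates.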",
  "data": [
    {"system": "MeWo", "test": "cell count relative to DMSO control; melanoma cells; higher = more viable cells", "details": "library dose: low library concentration; 72 h; first compound 0.4 µM", "units": {"cell count": "%"}, "values": [
      {"smiles": "Cn1sc(=O)n(Cc2ccccc2)c1=O", "note": "+ Oc1cc(-c2nc(-c3ccccc3)[nH]c2-c2ccncc2)ccc1Cl [L779450] (partner dose 0.2 µM)", "cell count": 101},
      {"smiles": "CCCCCCCCCCCCCCCCCCOP(=O)([O-])OC1CC[N+](C)(C)CC1", "note": "[Perifosine] + Cc1cc([N+](=O)[O-])ccc1NS(=O)(=O)c1cc(Cl)ccc1Cl [FH535] (partner dose 1 µM)", "cell count": 96.9},
      {"smiles": "C[C@@H](N)c1ccc(C(=O)Nc2ccnc3[nH]ccc23)cc1", "note": "+ O=C(O)C(=O)Nc1sc2c(c1C(=O)O)CCNC2 [TCS401] (partner dose 1.66667 µM)", "cell count": 75.8},
      {"smiles": "C[C@@H](N)c1ccc(C(=O)Nc2ccnc3[nH]ccc23)cc1", "note": "+ COc1ccc(COc2ccc(Cc3cnc(N)nc3N)cc2OC)cc1 [GW2580] (partner dose 1 µM)", "cell count": 72},
      {"smiles": "CCCCCCCCCCCCCCCCCCOP(=O)([O-])OC1CC[N+](C)(C)CC1", "note": "[Perifosine] + OCCn1cc(-c2cnc3nnn(Cc4ccc5ncccc5c4)c3n2)cn1 [PF04217903] (partner dose 1 µM)", "cell count": 96.8},
      {"smiles": "C[C@@H](N)c1ccc(C(=O)Nc2ccnc3[nH]ccc23)cc1", "note": "+ CN(C)S(=O)(=O)c1ccc2c(c1)/C(=C/c1cc3c([nH]1)CCCC3)C(=O)N2 [SU6656] (partner dose 0.4 µM)", "cell count": 78},
      {"smiles": "Cn1sc(=O)n(Cc2ccccc2)c1=O", "note": "+ Cc1cc([N+](=O)[O-])ccc1NS(=O)(=O)c1cc(Cl)ccc1Cl [FH535] (partner dose 1 µM)", "cell count": 91},
      {"smiles": "Cn1sc(=O)n(Cc2ccccc2)c1=O", "note": "+ CC(C)CCN1c2nc(Nc3cc(F)c(O)c(F)c3)ncc2N(C)C(=O)C1C [BID1870] (partner dose 0.2 µM)", "cell count": 88.6},
      {"smiles": "C[C@@H](N)c1ccc(C(=O)Nc2ccnc3[nH]ccc23)cc1", "note": "+ c1cc(-c2cnn3cc(-c4ccc(OCCN5CCCCC5)cc4)cnc23)ccn1 [Dorsomorphin] (partner dose 0.4 µM)", "cell count": 89.4},
      {"smiles": "CCCCCCCCCCCCCCCCCCOP(=O)([O-])OC1CC[N+](C)(C)CC1", "note": "[Perifosine] + CC(C)(C)c1cnc(CSc2cnc(NC(=O)C3CCNCC3)s2)o1 [SNS-032] (partner dose 0.01 µM)", "cell count": 97.1},
      {"smiles": "C[C@@H](N)c1ccc(C(=O)Nc2ccnc3[nH]ccc23)cc1", "note": "+ O=c1cc(-c2cccc3c2Sc2ccccc2S3)oc(N2CCOCC2)c1 [KU55933] (partner dose 1 µM)", "cell count": 80.1},
      {"smiles": "CCCCCCCCCCCCCCCCCCOP(=O)([O-])OC1CC[N+](C)(C)CC1", "note": "[Perifosine] + C[C@@H]1CCN(C(=O)CC#N)C[C@@H]1N(C)c1ncnc2[nH]ccc12 [CP690550] (partner dose 1 µM)", "cell count": 98.2}
    ]}
  ]
}
